Publication PMC4336329 (PLoS ONE, 2015)
Among all 310,000 compounds or so, about 2,200 (0.71%) showed an effect of 50% or more. The effect is printed as a negative number. Some of the results follow.

These compounds were tested against human ether-à-go-go-related gene (hERG) potassium channel (human, UniProt Q12809) (assay: primary screen, population patch clamp on CHO cells stably expressing hERG).
human ether-à-go-go-related gene (hERG) potassium channel, sequence (Q12809 whole entry, looked up): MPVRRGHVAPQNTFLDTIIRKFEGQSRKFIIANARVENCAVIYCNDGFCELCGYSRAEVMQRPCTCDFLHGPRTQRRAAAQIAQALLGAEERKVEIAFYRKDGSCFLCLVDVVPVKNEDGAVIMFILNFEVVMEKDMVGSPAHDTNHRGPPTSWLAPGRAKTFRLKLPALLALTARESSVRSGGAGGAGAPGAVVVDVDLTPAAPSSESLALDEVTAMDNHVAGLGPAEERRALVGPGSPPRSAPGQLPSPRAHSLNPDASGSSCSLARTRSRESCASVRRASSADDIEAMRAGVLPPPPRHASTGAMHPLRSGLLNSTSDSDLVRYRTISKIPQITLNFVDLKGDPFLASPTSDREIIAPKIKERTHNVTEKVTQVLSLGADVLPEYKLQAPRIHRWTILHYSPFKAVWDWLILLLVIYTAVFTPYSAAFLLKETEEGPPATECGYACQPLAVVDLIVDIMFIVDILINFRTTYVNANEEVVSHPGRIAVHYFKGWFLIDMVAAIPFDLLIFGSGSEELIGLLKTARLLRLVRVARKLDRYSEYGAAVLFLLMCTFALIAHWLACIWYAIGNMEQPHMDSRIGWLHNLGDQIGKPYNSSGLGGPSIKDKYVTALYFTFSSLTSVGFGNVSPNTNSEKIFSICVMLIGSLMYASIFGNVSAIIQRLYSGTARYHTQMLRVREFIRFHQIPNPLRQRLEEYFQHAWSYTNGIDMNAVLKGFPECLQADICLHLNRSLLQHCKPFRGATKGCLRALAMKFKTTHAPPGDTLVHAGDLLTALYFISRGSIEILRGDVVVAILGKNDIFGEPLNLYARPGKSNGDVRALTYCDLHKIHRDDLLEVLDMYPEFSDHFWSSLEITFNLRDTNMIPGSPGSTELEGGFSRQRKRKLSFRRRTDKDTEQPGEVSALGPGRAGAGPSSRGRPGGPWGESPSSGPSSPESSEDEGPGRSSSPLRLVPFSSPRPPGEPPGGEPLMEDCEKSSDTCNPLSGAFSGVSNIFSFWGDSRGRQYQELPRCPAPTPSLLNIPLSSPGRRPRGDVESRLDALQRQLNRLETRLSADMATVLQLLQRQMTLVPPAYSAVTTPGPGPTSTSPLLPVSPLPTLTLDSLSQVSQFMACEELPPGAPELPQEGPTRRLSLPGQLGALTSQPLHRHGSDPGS

SMILES | hERG current change (%, negative = inhibition) at 1uM [%]
Cc1nc(S(=O)(=O)c2ccc(Br)cc2)nc2c1CCC2 | 10.5
COC(=O)Cn1cnc2c(oc3ccccc32)c1=O | 11.1
C#CC[N+](C)(C)CCCCCCCCCC.[Br-] | -0.39
Cc1cccc(C)c1OCc1nc2ccccc2c(=O)n1/N=C/c1c[nH]c2ccccc12 | 9.22
C[C@H](NC(=O)c1[nH]cnc1C(=O)Nc1ccc(CNC(=O)OC(C)(C)C)cc1)C(=O)OCc1ccccc1 | 4.09
O=C1NC(=O)c2cc([N+](=O)[O-])cc3cccc1c23 | 10.3
CCCc1[nH]n(-c2ccc([N+](=O)[O-])cc2)c(=O)c1C=NCCc1ccc(OC)c(OC)c1 | 4.23
CCOc1cc(C(C(=O)NCC2CCCO2)N(C(=O)Cn2nnc3ccccc32)c2ccccc2C(C)=O)ccc1O (stereo not shown) | 9
O=C(c1ccc(S(=O)(=O)c2ccccc2Cl)c([N+](=O)[O-])c1)N1CCCCCC1 | -0.441
O=C(c1cc(-c2ccc(Cl)cc2Cl)on1)N1CCN(C(=O)c2ccco2)CC1 | -10.6
O=C(O)COc1ccc(C(=O)Cc2ccc3c(c2)OCCCO3)c(O)c1 | 9.52
Cc1ccc(NS(=O)(=O)c2ccc(C(=O)NCCCN3CCOCC3)cc2)cc1 | 3.25
C=CCC(NCc1ccco1)c1ccc(OC)cc1 (stereo not shown) | 19.8
CC(=O)NC1C(OCc2ccccc2)OC(COC(C)=O)C(OC(C)=O)C1OC(C)=O (stereo not shown) | 15.8
COc1cccc(CNC(=O)COC(=O)c2cc(Br)c(Br)s2)c1 | 14.1
CC(C)CC1NC(=O)N(CC(=O)Nc2ccc(-c3ccccc3)cc2)C1=O (stereo not shown) | 10
COc1ccc2nc(NC(=O)CCN3C(=O)c4ccccc4C3=O)sc2c1 | 3.41
O=c1ccc(-c2n[nH]c(=S)n2-c2ccc(F)c(Cl)c2)n[nH]1 | 14.8
C/C(=N/N1CCN(Cc2cccc3ccccc23)CC1)c1cccnc1 | -4.88
N/C(=N\OC(=O)Cc1ccccc1)c1ccncc1 | 11.7
CCOC(=O)NC1(C(F)(F)F)C(=O)NC(C)=C1C(=O)OC (stereo not shown) | 5.34
Cc1ccc(NC(=O)CN(C)C(=O)/C=C/c2ccc3c(c2)OCO3)cc1 | -4.6

SMILES | hERG current change (%, negative = inhibition) at 1uM [%]
CCN(CC(=O)NC(=O)NCc1ccccc1)Cc1nc2ccccc2c(=O)[nH]1 | 6.57
Cc1ccc(OCC(=O)NC(=S)Nc2cccc(NC(=O)c3ccccc3Cl)c2)cc1 | -0.0695
C=CCN(c1ccc(C(=O)Nc2ccc(C)cc2)cc1)S(C)(=O)=O | 8.12
O=C(CSc1ccccn1)N1CCN(c2ncc(C(F)(F)F)cc2Cl)CC1 | -4.57
Cc1nc(SCC#N)c2c3c(sc2n1)CCC3 | -3.28
CC(CCc1ccccc1)NC(=O)CCCCCNc1nc(=S)[nH]c2ccccc12 (stereo not shown) | 5.34
Cc1noc(C)c1S(=O)(=O)N1CCC2(CC1)OCCO2 | 11.7
CC(=O)Oc1cccc(/C=C2\Sc3ccccc3C2=O)c1 | 11.1
CC(=O)Nc1ccc(N2CCN(c3ccc(C(F)(F)F)cn3)CC2)nc1 | 8.34
O=C(COC(=O)Cc1c[nH]c2ccccc12)Nc1cccc2ccccc12 | 12
Cc1cc(OCC(=O)NC(Cc2ccc(Cl)cc2)C(=O)O)c2c(C)cc(=O)oc2c1 (stereo not shown) | 6.06
CCCS(=O)(=O)c1c(S(=O)(=O)CCC)c2c(N)cccn2c1C(=O)c1ccccc1 | 9.79
CCOC(=O)N1CCN(S(=O)(=O)c2ccc(-n3cnnn3)cc2)CC1 | -6.68
CC(=O)Nc1ccc(NC(=O)COC(=O)CCCc2c[nH]c3ccccc23)cc1 | 5.96
CS(=O)c1ccccc1-c1nc(-c2ccc(Cl)cc2)no1 (stereo not shown) | 5.58
COc1ccc(N2C(=O)C(CC(N)=O)N(NC(=O)c3cccc(OC)c3)C2=S)cc1 (stereo not shown) | 17.4
Cc1nnc(SCCn2c(N3CCN(C)CC3)nc3c2c(=O)[nH]c(=O)n3C)s1 | 8.37
CCOC(=O)c1n[nH]n2c1nc(=O)c1ccccc12 | 16.7
Cc1ccc(C(=O)NCCN2C3=NC[C@H](C(C)C)N3C[C@H]2Cc2ccc(O)cc2)cc1Br | 0.0506
CCOC(=O)c1cc(C)n(-c2ccccc2)c1C | 11.9
CC(C)CN(C(=O)CCc1ccccc1)c1c(N)n(CC(C)C)c(=O)[nH]c1=O | 6.51
CCOc1ccc(OCCN2C(=O)NC3(CCCc4ccccc43)C2=O)cc1 (stereo not shown) | 3.7

SMILES | hERG current change (%, negative = inhibition) at 1uM [%]
CCN1CCN(C(=O)C2COc3ccccc3O2)CC1 (stereo not shown) | 1.63
Cc1c(C(=O)O)cccc1-c1ccc(/C=C2/NC(=O)N(c3ccccc3)C2=O)o1 | 24.8
O=C(CN1C(=O)c2ccccc2S1(=O)=O)NC1CCCC1 | 14.6
Cc1ccc2oc(C(=O)N(Cc3ccncc3)CC3CCCO3)c(C)c2c1 (stereo not shown) | 0.601
O=C(CCc1ccccc1)NCCSCc1c(F)cccc1Cl | 7.76
Cc1cc(C)n2nc(C)c(-c3ccc(Cl)cc3)c2n1 | 19.4
O=C(N/N=C/c1cn(-c2ccccc2)nc1-c1cc2ccccc2o1)c1c[nH]c2ccccc12 | 19.5
CCN(CC)c1ccc(S(=O)(=O)N2CCOCC2)cc1NC(=O)CSC(=S)N1CCCC1 | -9
Cc1ccccc1C(=O)NCC(=O)c1ccccc1 | 4.83
CCN(CC)S(=O)(=O)c1cc(NC(=O)c2ccc3c(c2)NC(=O)C(C)S3)ccc1C (stereo not shown) | 7.51
O=C(Cc1cccs1)N(Cc1ccco1)C1(C(=O)NC2CCCCC2)CCCCC1 | 8
CCOC(=O)N1CCN(S(=O)(=O)c2ccc(C(=O)Nc3nc4c(s3)CC(C)CC4)cc2)CC1 (stereo not shown) | 14
Cc1cc(F)ccc1NCc1ccncc1 | -1.09
Cc1ccccc1CN(C)CC(=O)NC(C)CCc1ccccc1 (stereo not shown) | 3.54
COc1ccc(N2CCN(C(=O)CCN3C(=S)NC(C)(C)CC3C)CC2)cc1 (stereo not shown) | 21.8
COc1ccc(CCNc2c(C)c(C)nc3ncnn23)cc1 | -4.13
COc1ccc(CNC(=O)COC(=O)c2cccc(S(=O)(=O)N3CCOCC3)c2)cc1 | -2.3
CC1=C(C(N)=O)C(c2ccncc2)n2nc(-c3ccccc3Cl)nc2N1 (stereo not shown) | 12.7
N#CC1=C2SCN(Cc3ccccc3)CN2C(=O)CC1c1cccs1 (stereo not shown) | 10.2
CCn1c(=O)c(C(=O)Nc2ccccc2)c(O)c2ccccc21 | 11.4
CCc1ccc(NC(=O)CN(c2ccc(OC)cc2)S(=O)(=O)c2c(C)nn(C)c2C)cc1 | 21.3
COc1cc(-c2nc(S(=O)(=O)c3ccc(C)cc3)c(N3CCOCC3)o2)cc(OC)c1OC | 8.44

SMILES | hERG current change (%, negative = inhibition) at 1uM [%]
CCCCOC(=O)n1c(=O)oc2ccccc21 | 7.17
COc1nc(N/N=C/c2ccc(-c3ccccc3[N+](=O)[O-])o2)nc(N2CCOCC2)n1 | 8.99
Cc1ccc(C(=O)Nc2ccccc2N2CCN(C(=O)C(C)C)CC2)cc1 | 1.8
c1ccc(CCN2CCC3(CC2)OCCO3)cc1 | 13.2
CCC(COC(=O)NC)NC(=O)Oc1cccc(C)c1 (stereo not shown) | 4.35
COc1cccc(-c2c[nH]c(=O)[nH]c2=O)c1 | 12.9
CCN(CC)CCCn1c2c(c(SCC(=O)Nc3cc(C)on3)nc1=O)CCC2 | 11.4
CCCCC(C(=O)NC(C)c1ccccc1)C(=O)NC(C)c1ccccc1 (stereo not shown) | 13.6
CN1C(=O)[C@@H]2[C@H](C1=O)[C@@H]1C(=O)Nc3ccccc3C(=O)N1[C@@H]2c1ccc(Br)cc1 | -16.7
O=C(CN1C(=O)COc2ccccc21)c1ccc(Cl)cc1 | -9.7
O=C(Nc1ccc(Cl)cc1C(F)(F)F)C(Sc1nnc(-c2cccs2)o1)c1ccccc1 (stereo not shown) | 0.359
CC1CC(=O)N(C)c2cc([N+](=O)[O-])ccc2N1 (stereo not shown) | -0.923
COCCCNC(=S)Nc1ccc(N2CCCCC2)cc1 | 1.68
NS(=O)(=O)c1ccc(NC(=S)NC2CCCC2)cc1 | 11.8
COC(=O)/C(N=Nc1c(C)n(C)n(-c2ccccc2)c1=O)=C(\C)O | 10.8
O=C(NNc1c([N+](=O)[O-])cc(C(F)(F)F)cc1[N+](=O)[O-])c1ccco1 | 13.7
CSc1c(-c2ccccc2)nc2ccccc2c1C(=O)O | 15.7
Cc1ccc(N(CC(O)CN2CCCC2)S(=O)(=O)c2ccccc2)cc1 (stereo not shown) | -47.4
Cc1ccccc1CC1(CO)CCCN(C(=O)CCC(F)(F)F)C1 (stereo not shown) | 9.79
O=C(Oc1ccccc1)c1cccc2cccnc12 | 6.02
CCCCCCCCOC(=O)CCn1[nH]c(=O)c2ccccc2c1=O | 0.0369
O=C(/C=C/c1c(F)cccc1Cl)NCCCN1CCOCC1 | -5.67
